In all, about 33,000 sequences were measured (“E-score (-0.5 to 0.5)”: median about -0.01, highest 2% from about 0.26 on). This is one part of the list.
What follows are sequences tested against Ste12 (UniProt P13574) (assay: PBM E-score (8-mer binding enrichment) (E-score (-0.5 to 0.5)); higher = stronger / more preferred TF binding; most listed sequences are background and not binding sites). Details: protein concentration: 200 nM; construct: GST-DNA-binding domain.
In short: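 Universal all-10-mer Agilent arrays, fresh or stripped once, were converted to double-stranded form by primer extension. GST-tagged yeast transcription factors from PURExpress in vitro transcription/translation, full-length or DNA-binding domain only, were applied at about 100-200 nM and detected with fluorescent anti-GST. After masliner normalisation, the Universal PBM Analysis Suite scored each ungapped eight-base word together with its reverse complement by E-score.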
With TAGGGTAA the “PBM E-score” value was 0.184. With ACGTGAAA the “PBM E-score” value was 0.323. CGCCATTC was tested, and the “PBM E-score” value was 0.0062. ATCATGAT was tested, and the “PBM E-score” value was 0.0551. With CCTCCCCC the “PBM E-score” value was -0.134. CATCGAGG was tested, and the “PBM E-score” value was -0.109. For AGTGCCCC, the “PBM E-score” value was -0.2. For GTGCTCAA, the “PBM E-score” value was 0.036. With GGTCATAA the “PBM E-score” value was 0.0211. In the case of ACGTCAAG, the “PBM E-score” value was -0.222. For AAGGCACA, the “PBM E-score” value was 0.0756. ACAGATAA was tested, and the “PBM E-score” value was 0.166. CTCCGTTA was tested, and the “PBM E-score” value was -0.0784. With AATCAATC the “PBM E-score” value was 0.116. With GATGTTAA the “PBM E-score” value was 0.123. For CCCGAATC, the “PBM E-score” value was -0.00223. With TCGCCTCA the “PBM E-score” value was -0.0386. GTATGCGA was tested, and the “PBM E-score” value was -0.0958. AGCGTACC was tested, and the “PBM E-score” value was -0.146. For ATTATTTA, the “PBM E-score” value was 0.281. With ATATTCGA the “PBM E-score” value was -0.151. For TCTCTCCA, the “PBM E-score” value was -0.0624. With TCCCAGAA the “PBM E-score” value was -0.0433. CCTTACTA was tested, and the “PBM E-score” value was 0.0617. In the case of ACACTGTA, the “PBM E-score” value was 0.0565. With CAAGGACC the “PBM E-score” value was -0.14. ATCCTCCC was tested, and the “PBM E-score” value was -0.0174. In the case of AGGCGGGG, the “PBM E-score” value was 0.269. For CATTACCA, the “PBM E-score” value was 0.019. For ACGTGTAA, the “PBM E-score” value was -0.074. AAGCGCAG was tested, and the “PBM E-score” value was -0.0659. In the case of CCGGGGCC, the “PBM E-score” value was 0.0185. In the case of CCCCCCCC, the “PBM E-score” value was -0.275. With TCGAGACA the “PBM E-score” value was -0.0424. CAAACTTC was tested, and the “PBM E-score” value was 0.124. With AGGTACTA the “PBM E-score” value was 0.00059. CCCTGGGC was tested, and the “PBM E-score” value was -0.133. In the case of CCGTGTCA, the “PBM E-score” value was 0.111. With TCGACTAA the “PBM E-score” value was 0.0302. In the case of ATTCCTGA, the “PBM E-score” value was 0.144. With AAATGACA the “PBM E-score” value was -0.0446. For CTGCTACA, the “PBM E-score” value was 0.0671. For CGCGGAGA, the “PBM E-score” value was 0.00397. For AAGGATCG, the “PBM E-score” value was 0.0415. CCCACAAG was tested, and the “PBM E-score” value was -0.133. With CAAGGAGC the “PBM E-score” value was -0.157. For CACTTAGC, the “PBM E-score” value was -0.179. In the case of ACTTGTGG, the “PBM E-score” value was 0.116. CCTGTTCA was tested, and the “PBM E-score” value was -0.108. In the case of AAATTTTC, the “PBM E-score” value was 0.105. In the case of CATGACTA, the “PBM E-score” value was -0.176. For AATTAATG, the “PBM E-score” value was 0.232. With ACCTATCC the “PBM E-score” value was -0.00379. With CGTCCAGC the “PBM E-score” value was -0.127. For GCATGAGC, the “PBM E-score” value was -0.0419. With ACACAGGA the “PBM E-score” value was 0.0461. In the case of ATTGTGGC, the “PBM E-score” value was 0.0287. For AAACGACC, the “PBM E-score” value was 0.161. With AAACCTCA the “PBM E-score” value was 0.256. With GAATGAGC the “PBM E-score” value was -0.0246. With GAGCTGGC the “PBM E-score” value was -0.0837. GAGGACGC was tested, and the “PBM E-score” value was -0.101. With CCGTAGTC the “PBM E-score” value was -0.122. With GTCCGATA the “PBM E-score” value was -0.0862. For CACGGACC, the “PBM E-score” value was -0.162. With AACCCTAG the “PBM E-score” value was -0.108. With TGTCGCAA the “PBM E-score” value was 0.191. For CCCCGGTA, the “PBM E-score” value was -0.299. CACCCCCC was tested, and the “PBM E-score” value was -0.314. With AGTATCCG the “PBM E-score” value was 0.0221. ATATCCGA was tested, and the “PBM E-score” value was 0.0934. In the case of ACGGAGTC, the “PBM E-score” value was -0.0702. In the case of AAAACAGC, the “PBM E-score” value was 0.127. In the case of AACGTCTC, the “PBM E-score” value was 0.108. With CTACGCTA the “PBM E-score” value was -0.213. For AATAGTCA, the “PBM E-score” value was -0.0559. AGCAGGCC was tested, and the “PBM E-score” value was -0.109. For AATCATGG, the “PBM E-score” value was 0.0534. For ATTTAAGG, the “PBM E-score” value was 0.00576. In the case of TGAGGGAA, the “PBM E-score” value was -0.0588. With ATTAATAA the “PBM E-score” value was 0.289. In the case of ATCTCCGG, the “PBM E-score” value was 0.12. For ATCCTATG, the “PBM E-score” value was -0.0158. With AACGAGCA the “PBM E-score” value was 0.0898. In the case of GCTCCAAA, the “PBM E-score” value was -0.0614. For CTAGTCTC, the “PBM E-score” value was -0.0743. In the case of ATAATAGC, the “PBM E-score” value was -0.0379. For CAACGCAC, the “PBM E-score” value was -0.0698. For AATGAGGT, the “PBM E-score” value was 0.0381. With CCCTACAC the “PBM E-score” value was -0.0205. With CGTCATCA the “PBM E-score” value was 0.0862. In the case of TACACGTA, the “PBM E-score” value was -0.00219. In the case of CTGTGAGC, the “PBM E-score” value was -0.0343. In the case of ATCTCGAA, the “PBM E-score” value was 0.0143. ATTTCTGG was tested, and the “PBM E-score” value was 0.205. In the case of GGAGGATA, the “PBM E-score” value was -0.0611. AGACCTAA was tested, and the “PBM E-score” value was -0.0879. For CAATCCCC, the “PBM E-score” value was 0.0988. With TCTAGAAA the “PBM E-score” value was 0.013. With TAATACGA the “PBM E-score” value was 0.0708. AAGTTAAG was tested, and the “PBM E-score” value was 0.00371. In the case of ATTAGTGG, the “PBM E-score” value was 0.085. ACCGTTTA was tested, and the “PBM E-score” value was 0.059. CTCTATAC was tested, and the “PBM E-score” value was -0.153. In the case of AGCGCTAA, the “PBM E-score” value was -0.0312. With CATGCCGA the “PBM E-score” value was -0.0901. For ATACTCAA, the “PBM E-score” value was 0.127. CTCCAACA was tested, and the “PBM E-score” value was 0.0733. CATACGAC was tested, and the “PBM E-score” value was -0.0204. In the case of CATTAGGC, the “PBM E-score” value was -0.175. For AGTTCAAC, the “PBM E-score” value was 0.12. For CAACTGTG, the “PBM E-score” value was -0.123. For AGGGGGCG, the “PBM E-score” value was -0.196. AGTCTACA was tested, and the “PBM E-score” value was -0.127. ACGACCTA was tested, and the “PBM E-score” value was -0.0371. In the case of ACCTTCCA, the “PBM E-score” value was -0.0033. With AGGGCTTA the “PBM E-score” value was -0.165. AGCGTGAG was tested, and the “PBM E-score” value was -0.0745. With ATGCAGTG the “PBM E-score” value was -0.00142. For AATTCGCT, the “PBM E-score” value was 0.0856. For CGGACTCA, the “PBM E-score” value was 0.00205. In the case of TAACAAGA, the “PBM E-score” value was 0.234. For AATAACCC, the “PBM E-score” value was 0.0955. In the case of AATGTGGT, the “PBM E-score” value was 0.0761. In the case of GGACTCCC, the “PBM E-score” value was -0.237. AAATACAG was tested, and the “PBM E-score” value was 0.0839. For GATATGAC, the “PBM E-score” value was 0.0645. ATGGACTC was tested, and the “PBM E-score” value was -0.125. With ATTCAACG the “PBM E-score” value was 0.0125. For ATTGTAAA, the “PBM E-score” value was 0.215. For ACCTATAC, the “PBM E-score” value was 0.0614. CTGGGTCA was tested, and the “PBM E-score” value was -0.169. With TATAGATA the “PBM E-score” value was 0.00949. CATGTGCG was tested, and the “PBM E-score” value was -0.0345. AAATAAAT was tested, and the “PBM E-score” value was 0.169. For AGTGGTGG, the “PBM E-score” value was -0.0364. In the case of GAGCTGTA, the “PBM E-score” value was -0.203. For CCCTGTTA, the “PBM E-score” value was 0.279. In the case of GGCGGCAC, the “PBM E-score” value was -0.00774. For CGTGCCAA, the “PBM E-score” value was -0.0801. CGTCACTC was tested, and the “PBM E-score” value was -0.0658. TCACGCAA was tested, and the “PBM E-score” value was 0.147. For AGGGGCTA, the “PBM E-score” value was -0.0204. In the case of TGCTCGAA, the “PBM E-score” value was -0.0595. With CCCTAAAC the “PBM E-score” value was -0.0553. For ATAGAATG, the “PBM E-score” value was 0.0775. With CGCGAGCA the “PBM E-score” value was -0.143. With GTTTCTGA the “PBM E-score” value was 0.237. For AACCAGAT, the “PBM E-score” value was -0.0314. With GGGAGTTA the “PBM E-score” value was -0.0784. In the case of CGGACCAA, the “PBM E-score” value was -0.096. With CGGGTCTC the “PBM E-score” value was 0.0262. With AGACTAAC the “PBM E-score” value was 0.00023. For ACCGTAAC, the “PBM E-score” value was 0.0248. AAGCCCCC was tested, and the “PBM E-score” value was -0.188. With CTAAACGC the “PBM E-score” value was 0.12. With GCATGGGC the “PBM E-score” value was -0.0951. TACCACCA was tested, and the “PBM E-score” value was -0.0369. With ATTTCTGA the “PBM E-score” value was 0.131. For CCCTCATA, the “PBM E-score” value was -0.00219. GGCCTGCA was tested, and the “PBM E-score” value was -0.162. With ATACTTAG the “PBM E-score” value was 0.13. In the case of AGTTTTCG, the “PBM E-score” value was 0.06. With GGGGCAAC the “PBM E-score” value was -0.169. With ATTCGCTG the “PBM E-score” value was 0.0593. In the case of AACCGCTT, the “PBM E-score” value was 0.0658. In the case of ATCGGGAG, the “PBM E-score” value was -0.199. With GACCGCGC the “PBM E-score” value was 0.0476. For CGAGAAAC, the “PBM E-score” value was 0.0131. For AAGCGGAC, the “PBM E-score” value was -0.0961. For ACCGGGGC, the “PBM E-score” value was -0.00737. With CACGGTGG the “PBM E-score” value was 0.0859.

Reference: the supplement of paper PMC3334620
